# From the supplement of paper PMC8728848
# Some of the results follow.
# B1: LTL (Lotus tetragonolobus), P19664 (protein)
# chain: VSFNYTEFKDDGSLILQGDAKIWTDGRLAMPTDPLVNNPKTTRSAGRALYATPVPIWDSATGNVASFVTSFNFLFVIRELKYTPTDGLVFFLAPVGTEIPSGSTGGFLGIFDGSNGFNQFVAVEFDSYHNIWDPKSLRSSHVGIDVNSIMSLKAVNWNRVSGSLEKATIIYDSQTNILSVVMTSQNGQITTIYGTIDLKTVLPEKVSVGFSATTGNPEREKHDIYSWSFTSTLKEPEEQA
# Legend:
# Experiment in all cases: glycan array binding signal (z-score within array); higher = stronger binding
# Conditions in all cases: glycan notation: IUPAC condensed, linker removed
# [1] = molecular target: Gal3S(b1-4)[Fuc(a1-3)]Glc6S
# Outline: (§1)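 From the Consortium for Functional Glycomics database, 3228 arrays were curated, keeping only those whose protein sequence was available. Binding is given as a within-array Z-score averaged across arrays sharing a protein sequence and across linkers. Negative Z-scores can be read as non-binding.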
# [2] = molecular target: Gal3S(b1-4)[Fuc(a1-3)]GlcNAc
# Outline: as §1
# [3] = molecular target: Gal3S(b1-4)[Fuc(a1-3)]GlcNAc6S
# Outline: as §1
# [4] = molecular target: Gal3S4S(b1-4)GlcNAc
# Outline: as §1
# [5] = molecular target: Gal3S6S(b1-4)GlcNAc
# Outline: as §1
# [6] = molecular target: Gal3S6S(b1-4)GlcNAc6S
# Outline: as §1
# [7] = molecular target: Gal4S(b1-4)GlcNAc
# Outline: as §1
# [8] = molecular target: Gal4S6S(b1-4)GlcNAc
# Outline: as §1
# [9] = molecular target: Gal6P(b1-4)GlcNAc
# Outline: as §1
# [10] = molecular target: Gal6S(b1-3)GlcNAc
# Outline: as §1
# [11] = molecular target: Gal6S(b1-3)GlcNAc6S
# Outline: as §1
# [12] = molecular target: Gal6S(b1-4)Glc
# Outline: as §1
# [13] = molecular target: Gal6S(b1-4)Glc6S
# Outline: as §1
# [14] = molecular target: Gal6S(b1-4)GlcNAc
# Outline: as §1
# [15] = molecular target: Gal6S(b1-4)GlcNAc6S
# Outline: as §1
# [16] = molecular target: GalNAc(a1-3)Gal
# Outline: as §1
# [17] = molecular target: GalNAc(a1-3)GalNAc
# Outline: as §1
# [18] = molecular target: GalNAc(a1-3)GalNAc(a1-3)Gal(a1-4)Gal(b1-4)GlcNAc
# Outline: as §1
# [19] = molecular target: GalNAc(a1-3)GalNAc(b1-3)Gal(a1-4)Gal(b1-4)Glc
# Outline: as §1
# [20] = molecular target: GalNAc(b1-3)Gal
# Outline: as §1
# [21] = molecular target: GalNAc(b1-3)Gal(a1-4)Gal(b1-4)GlcNAc
# Outline: as §1
# [22] = molecular target: GalNAc(b1-3)Gal(a1-4)Gal(b1-4)GlcNAc(b1-3)Gal(b1-4)Glc
# Outline: as §1
# [23] = molecular target: GalNAc(b1-3)Gal(a1-6)Gal(b1-4)Glc
# Outline: as §1
# [24] = molecular target: GalNAc(b1-3)GalNAc
# Outline: as §1
# [25] = molecular target: GalNAc(b1-3)GlcNAc
# Outline: as §1
# [26] = molecular target: GalNAc(b1-4)Gal(b1-4)Glc
# Outline: as §1
# [27] = molecular target: GalNAc(b1-4)GlcNAc
# Outline: as §1
# [28] = molecular target: GalNAc(b1-4)GlcNAc(b1-2)Man
# Outline: as §1
# [29] = molecular target: GalNAc(b1-4)GlcNAc(b1-2)Man(a1-3)[GalNAc(b1-4)GlcNAc(b1-2)Man(a1-6)]Man(b1-4)GlcNAc(b1-4)GlcNAc
# Outline: as §1
# [30] = molecular target: GalNAc(b1-4)GlcNAc(b1-3)GalNAc(b1-4)GlcNAc
# Outline: as §1
# [31] = molecular target: GalNAc(b1-4)GlcNAc6S
# Outline: as §1
# [32] = molecular target: GalNAc(b1-6)GalNAc
# Outline: as §1
# [33] = molecular target: GalNAc3S(b1-4)GlcNAc
# Outline: as §1
# [34] = molecular target: GalNAc3S(b1-4)GlcNAc3S
# Outline: as §1
# [35] = molecular target: GalNAc3S(b1-4)[Fuc(a1-3)]GlcNAc
# Outline: as §1
# [36] = molecular target: GalNAc4S6S(b1-4)GlcNAc
# Outline: as §1
# [37] = molecular target: GalNAc6S(b1-4)GlcNAc
# Outline: as §1
# [38] = molecular target: Glc(a1-4)Glc
# Outline: as §1
# [39] = molecular target: Glc(a1-4)Glc(a1-4)Glc(a1-4)Glc
# Outline: as §1
# [40] = molecular target: Glc(a1-6)Glc(a1-6)Glc
# Outline: as §1
# [41] = molecular target: Glc(a1-6)Glc(a1-6)Glc(a1-6)Glc
# Outline: as §1
# [42] = molecular target: Glc(b1-4)Glc
# Outline: as §1
# [43] = molecular target: Glc(b1-6)Glc
# Outline: as §1
# [44] = molecular target: GlcA(b1-3)Gal
# Outline: as §1
# [45] = molecular target: GlcA(b1-3)GlcNAc
# Outline: as §1
binder,measurement,setting,value
B1,glycan array binding signal (z-score),[1],0.78
same,glycan array binding signal (z-score),[2],-0.09
same,glycan array binding signal (z-score),[3],-0.287
same,glycan array binding signal (z-score),[4],-0.298
same,glycan array binding signal (z-score),[5],0.068
same,glycan array binding signal (z-score),[6],-0.16
same,glycan array binding signal (z-score),[7],-0.271
same,glycan array binding signal (z-score),[8],-0.151
same,glycan array binding signal (z-score),[9],-0.53
same,glycan array binding signal (z-score),[10],-0.381
same,glycan array binding signal (z-score),[11],-0.294
same,glycan array binding signal (z-score),[12],-0.131
same,glycan array binding signal (z-score),[13],-0.051
same,glycan array binding signal (z-score),[14],-0.022
same,glycan array binding signal (z-score),[15],-0.195
same,glycan array binding signal (z-score),[16],-0.206
same,glycan array binding signal (z-score),[17],-0.238
same,glycan array binding signal (z-score),[18],-0.224
same,glycan array binding signal (z-score),[19],-0.274
same,glycan array binding signal (z-score),[20],-0.283
same,glycan array binding signal (z-score),[21],-0.186
same,glycan array binding signal (z-score),[22],-0.168
same,glycan array binding signal (z-score),[23],-0.228
same,glycan array binding signal (z-score),[24],-0.117
same,glycan array binding signal (z-score),[25],-0.05
same,glycan array binding signal (z-score),[26],-0.273
same,glycan array binding signal (z-score),[27],-0.221
same,glycan array binding signal (z-score),[28],-0.392
same,glycan array binding signal (z-score),[29],1.48
same,glycan array binding signal (z-score),[30],-0.116
same,glycan array binding signal (z-score),[31],-0.34
same,glycan array binding signal (z-score),[32],-0.28
same,glycan array binding signal (z-score),[33],-0.329
same,glycan array binding signal (z-score),[34],-0.329
same,glycan array binding signal (z-score),[35],-0.138
same,glycan array binding signal (z-score),[36],-0.294
same,glycan array binding signal (z-score),[37],-0.348
same,glycan array binding signal (z-score),[38],-0.24
same,glycan array binding signal (z-score),[39],-0.177
same,glycan array binding signal (z-score),[40],-0.181
same,glycan array binding signal (z-score),[41],0.076
same,glycan array binding signal (z-score),[42],-0.263
same,glycan array binding signal (z-score),[43],-0.189
same,glycan array binding signal (z-score),[44],-0.018
same,glycan array binding signal (z-score),[45],-0.17
